Measured values reported in US20210338724A1 (IMMUNITYBIO, published 2021).
“And” between values parts separate entries of the source, which are not always exact repeats. Identical values can stand only once.

Tests used:
[1] = target: IL-2Rβ and common γ chain on 32Dβ cells; test: cell-based or functional assay
[2] = target: IL-2Rα, IL-2Rβ and common γ chain on CTLL-2 cells; test: cell-based or functional assay
[3] = target: T1, IL-18/IL-15RαSu fusion protein (human); test: co-expression in CHO-K1 cells
T1 construct: Second chimeric polypeptide of 12t15/18s

[4] = target: T2, IL-21/IL-15RαSu fusion protein (human); test: co-expression in CHO-K1 cells; complex purified by anti-TF (IgG1) affinity and size exclusion chromatography
T2 construct: Second chimeric polypeptide of 7t15-21s; also called IL-21/IL-15Rα sushi domain

[5] = target: T3, TGFβ receptor II/IL-15RαSu fusion protein (TGFRs) (human); test: co-expression in CHO-K1 cells
T3 construct: Second chimeric polypeptide of TGFRt15-TGFRs; also called TGFβR/IL-15RαSu
T3 chain: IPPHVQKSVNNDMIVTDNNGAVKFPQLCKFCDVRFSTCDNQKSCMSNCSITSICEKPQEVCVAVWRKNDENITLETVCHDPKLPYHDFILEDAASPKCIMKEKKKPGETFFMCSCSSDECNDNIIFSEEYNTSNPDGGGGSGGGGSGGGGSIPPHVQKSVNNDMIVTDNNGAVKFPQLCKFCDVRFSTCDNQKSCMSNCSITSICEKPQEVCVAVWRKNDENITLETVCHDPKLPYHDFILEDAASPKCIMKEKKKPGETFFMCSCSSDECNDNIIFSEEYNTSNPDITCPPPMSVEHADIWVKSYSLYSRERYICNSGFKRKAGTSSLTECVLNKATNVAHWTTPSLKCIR

[6] = target: T4, IL-12/IL-15RαSu fusion protein (human); test: co-expression in CHO-K1 cells; complex purified by anti-TF affinity and size exclusion chromatography
T4 construct: Second chimeric polypeptide of 18t15-12s
T4 chain: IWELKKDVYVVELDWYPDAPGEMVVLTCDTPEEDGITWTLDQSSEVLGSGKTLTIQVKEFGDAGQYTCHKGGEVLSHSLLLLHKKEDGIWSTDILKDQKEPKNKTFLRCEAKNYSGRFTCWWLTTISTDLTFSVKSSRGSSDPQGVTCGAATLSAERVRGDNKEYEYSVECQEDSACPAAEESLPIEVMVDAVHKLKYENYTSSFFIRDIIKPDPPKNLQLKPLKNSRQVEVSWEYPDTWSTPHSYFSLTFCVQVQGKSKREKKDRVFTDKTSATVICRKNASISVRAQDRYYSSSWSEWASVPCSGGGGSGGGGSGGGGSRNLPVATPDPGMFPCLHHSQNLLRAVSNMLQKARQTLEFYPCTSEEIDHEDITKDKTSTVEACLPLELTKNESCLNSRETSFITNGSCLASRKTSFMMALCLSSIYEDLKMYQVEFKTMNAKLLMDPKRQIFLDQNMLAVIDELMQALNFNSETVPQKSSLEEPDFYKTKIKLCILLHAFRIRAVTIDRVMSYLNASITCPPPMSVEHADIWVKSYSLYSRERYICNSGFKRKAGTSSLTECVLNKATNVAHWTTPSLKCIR

B1: IL-2/TF/IL-2 single-chain chimeric polypeptide (2t2) (other)
chain: [… about 150 residues …]SGTTNTVAAYNLTWKSTNFKTILEWEPKPVNQVYTVQISTKSGDWKSKCFYTTDTECDLTDEIVKDVKQTYLARVFSYPAGNVESTGSAGEPLYENSPEFTPYLETNLGQPTIQSFEQVGTKVNVTVEDERTLVRRNNTFLSLRDVFGKDLIYTLYYWKSSSSGKKTAKTNTNEFLIDVDKGENYCFSVQAVIPSRTVNRKSTDSPVECMGQEKGEFRE[… about 150 residues …]
In the case of B1, the “EC50, 32Dβ cell proliferation (WST1)” value [1] is reported as 70.6 pM and 158 pM and the “EC50, CTLL-2 cell proliferation (WST1)” value [2] is reported as 90.7 pM and 123 pM.

B2: IL-12/TF/IL-15 fusion protein (other)
chain: IWELKKDVYVVELDWYPDAPGEMVVLTCDTPEEDGITWTLDQSSEVLGSGKTLTIQVKEFGDAGQYTCHKGGEVLSHSLLLLHKKEDGIWSTDILKDQKEPKNKTFLRCEAKNYSGRFTCWWLTTISTDLTFSVKSSRGSSDPQGVTCGAATLSAERVRGDNKEYEYSVECQEDSACPAAEESLPIEVMVDAVHKLKYENYTSSFFIRDIIKPDPPKNLQLKPLKNSRQVEVSWEYPDTWSTPHSYFSLTFCVQVQGKSKREKKDRVFTDKTSATVICRKNASISVRAQDRYYSSSWSEWASVPCSGGGGSGGGGSGGGGSRNLPVATPDPGMFPCLHHSQNLLRAVSNMLQKARQTLEFYPCTSEEIDHEDITKDKTSTVEACLPLELTKNESCLNSRETSFITNGSCLASRKTSFMMALCLSSIYEDLKMYQVEFKTMNAKLLMDPKRQIFLDQNMLAVIDELMQALNFNSETVPQKSSLEEPDFYKTKIKLCILLHAFRIRAVTIDRVMSYLNASSGTTNTVAAYNLTWKSTNFKTILEWEPKPVNQVYTVQISTKSGDWKSKCFYTTDTECDLTDEIVKDVKQTYLARVFSYPAGNVESTGSAGEPLYENSPEFTPYLETNLGQPTIQSFEQVGTKVNVTVEDERTLVRRNNTFLSLRDVFGKDLIYTLYYWKSSSSGKKTAKTNTNEFLIDVDKGENYCFSVQAVIPSRTVNRKSTDSPVECMGQEKGEFRE[… about 120 residues …]
notes: First chimeric polypeptide of 12t15/18s
B2: binds [3].

B3: IL-7/TF/IL-15 fusion protein (other)
chain: DCDIEGKDGKQYESVLMVSIDQLLDSMKEIGSNCLNNEFNFFKRHICDANKEGMFLFRAARKLRQFLKMNSTGDFDLHLLKVSEGTTILLNCTGQVKGRKPAALGEAQPTKSLEENKSLKEQKKLNDLCFLKRLLQEIKTCWNKILMGTKEHSGTTNTVAAYNLTWKSTNFKTILEWEPKPVNQVYTVQISTKSGDWKSKCFYTTDTECDLTDEIVKDVKQTYLARVFSYPAGNVESTGSAGEPLYENSPEFTPYLETNLGQPTIQSFEQVGTKVNVTVEDERTLVRRNNTFLSLRDVFGKDLIYTLYYWKSSSSGKKTAKTNTNEFLIDVDKGENYCFSVQAVIPSRTVNRKSTDSPVECMGQEKGEFRE[… about 120 residues …]
notes: First chimeric polypeptide of 7t15-21s
B3: binds [4].

B4: TGFβ receptor II/TF/IL-15 fusion protein (TGFRt15) (other)
chain: IPPHVQKSVNNDMIVTDNNGAVKFPQLCKFCDVRFSTCDNQKSCMSNCSITSICEKPQEVCVAVWRKNDENITLETVCHDPKLPYHDFILEDAASPKCIMKEKKKPGETFFMCSCSSDECNDNIIFSEEYNTSNPDGGGGSGGGGSGGGGSIPPHVQKSVNNDMIVTDNNGAVKFPQLCKFCDVRFSTCDNQKSCMSNCSITSICEKPQEVCVAVWRKNDENITLETVCHDPKLPYHDFILEDAASPKCIMKEKKKPGETFFMCSCSSDECNDNIIFSEEYNTSNPDSGTTNTVAAYNLTWKSTNFKTILEWEPKPVNQVYTVQISTKSGDWKSKCFYTTDTECDLTDEIVKDVKQTYLARVFSYPAGNVESTGSAGEPLYENSPEFTPYLETNLGQPTIQSFEQVGTKVNVTVEDERTLVRRNNTFLSLRDVFGKDLIYTLYYWKSSSSGKKTAKTNTNEFLIDVDKGENYCFSVQAVIPSRTVNRKSTDSPVECMGQEKGEFRE[… about 120 residues …]
notes: First chimeric polypeptide of TGFRt15-TGFRs; also called TGFβR/TF/IL-15
B4: binds [5].

B5: IL-18/TF/IL-15 fusion protein (other)
chain: [… about 150 residues …]SGTTNTVAAYNLTWKSTNFKTILEWEPKPVNQVYTVQISTKSGDWKSKCFYTTDTECDLTDEIVKDVKQTYLARVFSYPAGNVESTGSAGEPLYENSPEFTPYLETNLGQPTIQSFEQVGTKVNVTVEDERTLVRRNNTFLSLRDVFGKDLIYTLYYWKSSSSGKKTAKTNTNEFLIDVDKGENYCFSVQAVIPSRTVNRKSTDSPVECMGQEKGEFRE[… about 120 residues …]
notes: First chimeric polypeptide of 18t15-12s
B5: binds [6].
